Laboratory results: publication PMC9645710, “Cryo-EM structures of peripherin-2 and ROM1 suggest multiple roles in photoreceptor membrane morphogenesis” (Science Advances, 2022)

Biological target: the molecule itself
Experiment: SEC; PRPH2 and ROM1 (wild type or cysteine mutants) expressed in HEK293T, solubilized in DDM/CHS; Superdex 200 Increase 10/300 GL, 25 mM tris-HCl, 150 mM NaCl, pH 7.5, 0.025% DDM/CHS; no reducing agent

B1: ROM1 C153S (human) (natural protein)
chain: not shown
notes: rod outer segment membrane protein 1 (ROM1), human, full length, mutant made by site-directed mutagenesis; source: HEK293T, transiently transfected, solubilized in DDM/CHS
**Q.** Which “stoichiometry N” value does the source give for B1 here?
**A.** The value was 2.
